B1: LINE1-full (parent)
chain: UACGUAGGUGGUUUUCCCCUGAUAGUGCUAAGGGGGCCUGGAAGUUUGGACUGGGCAGAGCUCAACACAGCGUGGCAAAGUGGCUGUGGCUAGACUGCCUCUCUGGAUUCCUCGUCACUCAGCAGGGCAUCUCUGAGAGAAAUGCC

The source gives no read counts; variants with many changes may rest on few reads.

In the data set the parent is B1. The data set is described as follows: self-cleavage, relative activity (ratio to wild type); higher = more cleavage; in vitro, sequencing; the parent is a self-cleaving ribozyme.
Take U52A C113A U132C: the self-cleavage was determined as 0.88. As for U52A C98U A107G, the figure is 0.12. The result for U52C G53U A64G reads 0.2; that for A50G U108A A121C, 1.19. In the case of U52C G53U C116U, the self-cleavage is 1.02. As for G49A G74A A78U U100A U104C, the figure is 1.12; as for U52C A107G U130C, 2.37. The result for U47C A94G A117C G126A U143G reads 0.18; that for U52A C71A U104C, 1.38. As to U47C A67G U96A A141G, the self-cleavage was 0.19. As for A50G A129G G137U, the figure is 0.82.

Turning to U52A U85A U100C, the self-cleavage came to 0.19. On to U47G U130C U134C, for which the self-cleavage worked out at 2.06. As for A50U A77U U134C, the figure is 0.71.

Turning to U52C U62C U85C, the self-cleavage is 0. On to A50U A77U U109C A141G, for which the self-cleavage amounted to 0.88. As for A50G A117C A129G, the figure is 1.13; as for U52A U102C A142U, 0.09; as for A50U U104G U119A, 0.36. The result for U52A U109C U143C reads 1.37; that for A50U U62G A138G, 0.06. As for U52C U87G U119A A121U A136G A138G, the figure is 0; as for U52A A94G U109C, 0.27.

Take A50U A117C U143C: the self-cleavage came out at 2.18. The result for U47A U104C A117G reads 0.88; that for U52C A117G G125U, 2.22; that for U52C A59G A79G, 0. The result for A50U U102A U134C reads 1.24. The result for U52C C68A A69G reads 0.06; that for U47G A59G G74A A140U, 0.06. Consider A50G C99U U115C, for which the self-cleavage was 0.84. Turning to A50G A64G U73A, the self-cleavage was 0.64.

As for U47C G49A U52G A107G, the self-cleavage stood at 1.9. The result for U52A U115C A136U A141G reads 1.81; that for U47C U52A U62C C63U, 0.05. As for A50G U62A U73A, the figure is 0.01. The result for A50U U81C U109C reads 0.86. For U52C G53A A64G A77U U112C, the self-cleavage was found to be 0.03.

Turning to U52G U81A A92G, the self-cleavage was determined as 0.41. The result for A50G U85A U100C reads 0.14; that for U47C G122C G144A, 1.53; that for U52A A79G U109C A136G, 1.58. The result for U47C A65U A129U U132C A138G reads 0.26. Consider A50U A64U A67G A94U U104C, for which the self-cleavage amounted to 0.08. A50G A94U U100A: the self-cleavage came to 0.08. For U52A U96C U109C, the self-cleavage is 0.16. On to A50U A57U U81C U115G, for which the self-cleavage is 0. As for U47C A57G U62C U109C, the figure is 0. As for A50G C51A A69U A79G A140G, the figure is 0.04; as for U52C U73A A124U U143C, 0.9.

Take A50U G86A U96G A138G: the self-cleavage came out at 0.08. As for U52C A65G U73A, the figure is 0; as for U52C A77G U112A, 1.08.

On to U52C A65G A67G, for which the self-cleavage came out at 0.

Regarding A50G U81C U96G A121U, the self-cleavage was 0. The result for C51A A69G U100C reads 0.38; that for A50G G75U U85C, 0.05; that for U52A U115C U134A, 1.92. The result for A50G C66U A94G A117G U130C reads 0.

For the variant U52A A59G A64U A77G U87C, the self-cleavage turned out to be 0.17. The result for U52C A78G A138U reads 0.96.

Regarding U52C U87A A117U A140G, the self-cleavage came out at 0.03. The result for U47G A50U A67G U132C reads 0.2; that for U47C A78G U102A U112A U143C, 2.04.

Take G49A A94G A136G: the self-cleavage worked out at 0.13. For U47C U115C C128U, the self-cleavage came out at 1.84. As for A50G U73C U134C, the figure is 1.41; as for G48A G80A A141G, 2.42. The result for U52C A77G C120U reads 2.05. As for A50G A59U C68A A77C G114A A129G, the figure is 0.01; as for U47C A77U U115A U132C, 2.07; as for U52A U100C A117G, 2.07.

As to U52C U62A U81A A141G, the self-cleavage came out at 0.06. As for U47C A50G C128U A141G, the figure is 1.29; as for U52C A69U A78G A92U U132C, 0.

For the variant C51U U96C C101U, the self-cleavage was found to be 0.07. The result for A50G U62C U73A A140G reads 0. As for U47A U104C U115C G127A, the figure is 1.98; as for U52A U62A A64G A69G A94U U143C, 0; as for U52A U132C A140G, 0.27.

U52A A129G A140U: the self-cleavage was found to be 1.07. For U52A A59G C113U, the self-cleavage is 0.06. The result for C51U A65G A77G reads 0. Regarding A50C A57U U96C, the self-cleavage is 0.

Turning to U47C U62C U100A, the self-cleavage came out at 0. The result for U47C G70U A138G reads 0.03. The result for U47C U85A U87C U102A reads 0.36; that for U52A U102C U143A, 1.17. For A50G G58A U134C, the self-cleavage turned out to be 0.08. The result for G48A U85C U132C reads 0.09; that for G48U C103U A124U A136U, 0.92; that for A50G U102A A121G, 0.98. As for A50G A78G U119C, the figure is 0.57; as for U47C U62C C68U, 0.03. The result for A50U A65U A69G A94G reads 0.11.

On to U52A A57G A94G, for which the self-cleavage came to 0. The result for U47C C90U U119A reads 0.03; that for U52A G54C U132C, 0.55; that for A50G G53A A77G A140U, 1.39. As for U47C A67G U119A, the figure is 0.72; as for U52A G93A A107G A121G, 0.02; as for C51U A65G G114A, 0. For the variant U52C U104C U108A G114A, the self-cleavage worked out at 0.54. As for U52C U115C U134A, the figure is 1.34; as for U52C A79G U87G A117G, 0; as for U47C U96G A124G, 0. The result for A50G C98A A140G reads 0.05; that for A50G U119A A138G, 0.53; that for U52C U81G A142G, 0.64. As for U47C U102C U108C A129U, the figure is 0.51.

As to G48U A64G A141G, the self-cleavage was determined as 0.19. As for U47C U81A U96A U102A, the figure is 0.25. The result for A50U U85C A138G reads 0.1. The result for U52C A65G A94G reads 1.02; that for U47A U134C G144A, 0.71. As to U52A A59G A64U A77G, the self-cleavage is 0.14. The result for U47C A78G A107G G114A reads 1.48; that for U47A U119C G122A, 1.73. On to A50G C68U U119A, for which the self-cleavage is 0.04. As for U47C A79G A124U, the figure is 0.63.

Consider U52C U102A A138G, for which the self-cleavage turned out to be 2.77.

For the variant U52C A64U U73C U91C C123U, the self-cleavage worked out at 0.37. The result for G48A A77G C133A reads 1.82. On to A50G A78U U87C U112A, for which the self-cleavage came out at 0.34.

As to U47C U81C U115A, the self-cleavage is 0.21. As for U47C U96A U119C, the figure is 0.13; as for A50G U81A U87C, 0; as for U52A G54A C103A U130C, 0.34. The result for U47C A117U C145A reads 1.65; that for U47C U96G C131U U132A, 0.23; that for U47C A69G U96A C123U U130C A138G, 0.08. The result for A50G U134C A142G reads 0.96; that for G49A C63U A64G U109A, 0.05. Regarding A50C G74C A140G, the self-cleavage turned out to be 1.24.

On to U52C G80A U96A A117U A124G A136G, for which the self-cleavage is 0. As for A50U U62A U73C A77G G97A, the figure is 0.03; as for U47A U109A A142G, 1.18; as for U52A U62C C118A U130C U134C, 0.06. The result for G48A A65G A117G A141G reads 0; that for A50G A57U G83A U96A A107G U119C, 0; that for G48A U104C U108C, 1.28. As for U47C U96A G114A, the figure is 0.08; as for U47A U100C A142G, 1.84.

On to C51G A67G U87C, for which the self-cleavage came to 0.71.

Turning to U52C A64U A77G U100C A124G, the self-cleavage turned out to be 1.41. As for A50U A78U C123U, the figure is 1.45; as for A50G U102C U130C, 2.3. Regarding U47C A59G U100C, the self-cleavage worked out at 0.1. As for U52G A92G A117U, the self-cleavage worked out at 0.15.

For U47C A57U A67G A129U, the self-cleavage turned out to be 0.1. As for A50G U134A U143C, the figure is 0.4.

A50G A78G U132A: the self-cleavage stood at 0.58. As for U52A A77G A78G, the figure is 1.38. The result for G48U A136G A142C reads 2.1; that for U52C G122A A140U, 1.15. For A50U A57G U132C, the self-cleavage came out at 0.1.

As to U47C U62C A94G U132A, the self-cleavage was determined as 0.

As to U52A A67U U119C A138G, the self-cleavage was 0.61. The result for A50U A107U U132C reads 1.44; that for U52C A64C U115C, 0.31; that for U47A U109C A138U, 1.26. As for A50G A59G U73A, the figure is 0.11; as for A50G U102C A138U, 0. In the case of U47C U112C A138G, the self-cleavage was determined as 2.8. For U52A A69U U85C, the self-cleavage is 0.36. The result for U47C U62A C98U reads 0.04. The result for G49A A77G A78G A94C reads 0.
